Results reported in PubChem BioAssay AID1030 (National Center for Advancing Translational Sciences (NCATS), 2008).
Values joined by “and” are separate entries in the source; they are usually repeats but may differ in a detail not shown here. Equal values may be shown once. Hit rate of the full screen: of about 220,000 compounds, about 16,000 (7.3%) were called active. The inconclusive results got no clear call from the source; some entries with a clear call stand among them for comparison. The call rests on the fitted dose curve; in most records, active means well fitted inhibition curve with a large enough effect (not every such curve was filed as active); inconclusive means small, poorly fitted or top-dose-only effect, or another doubt; inactive means no such curve, though single readings can be large or run the other way. Potencies beside an inconclusive call are fits to weak or partial responses and may not hold up.

Molecular target: Aldehyde dehydrogenase 1A1 (Homo sapiens) (UniProt P00352)
Assay: qHTS Assay for Inhibitors of Aldehyde Dehydrogenase 1 (ALDH1A1);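 on activity, negative = inhibition: plate controls were no enzyme wells and a reference inhibitor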
Details: Purified ALDH1A1, NADH fluorescence, propionaldehyde substrate; series mostly up to 75.3 µM; activity, negative = inhibition: at the top concentration
Potency means the concentration at half of the fitted maximal effect; tags describe the fitted curve by direction and shape.

Chain of UniProt P00352 (P00352 whole entry, looked up): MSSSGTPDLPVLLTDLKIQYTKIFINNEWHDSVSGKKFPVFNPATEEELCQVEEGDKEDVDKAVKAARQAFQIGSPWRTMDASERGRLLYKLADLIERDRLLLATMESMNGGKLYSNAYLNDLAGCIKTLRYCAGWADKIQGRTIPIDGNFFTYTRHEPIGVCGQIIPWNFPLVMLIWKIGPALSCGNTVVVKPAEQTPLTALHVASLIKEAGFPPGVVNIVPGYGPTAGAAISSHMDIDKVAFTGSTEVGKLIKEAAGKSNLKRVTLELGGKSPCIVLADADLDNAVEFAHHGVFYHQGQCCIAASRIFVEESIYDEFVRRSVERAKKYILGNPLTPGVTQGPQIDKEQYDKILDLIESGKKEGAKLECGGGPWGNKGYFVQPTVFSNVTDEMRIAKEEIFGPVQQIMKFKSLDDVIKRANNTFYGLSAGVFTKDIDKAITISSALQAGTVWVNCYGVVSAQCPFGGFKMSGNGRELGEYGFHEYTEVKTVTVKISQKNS

| Compound | activity, negative = inhibition | Potency |
| --- | --- | --- |
| O=C(C1=NN[C@@H]2C(=O)N(c3ccccc3C(F)(F)F)C(=O)[C@H]12)c1ccc2ccccc2n1 | inactive: 7.67% |  |
| CCN(CC)C(=O)c1ccc(-c2ccccc2)cc1 |  | inconclusive: 35.5 µM [inhibitor, single point] |
| COc1cc(/C=N/NC(=O)c2ccncc2)ccc1Oc1ccc([N+](=O)[O-])cn1 |  | inconclusive: 39.8 µM [inhibitor, single point] |
| CN(Cc1cc(Br)cc(Br)c1O)Cc1c(O)ccc2ccccc12 | inactive: -3.22% [at 13.5 µM] |  |
| COc1ccc(N2C(=O)CC(N3CCCC4CCCCC43)C2=O)cc1 (stereo not given) |  | active: 8.91 µM |
| COc1ccc(-n2nnc3c(SCC(=O)NCc4ccco4)ncnc32)cc1 |  | inconclusive: 39.8 µM [inhibitor, single point] |
| O=C(O)c1cc([N+](=O)[O-])c(NCCC2=CCCCC2)c([N+](=O)[O-])c1 |  | active: 10 µM |
| COc1cc(C(=S)N2CCOCC2)cc(OC)c1OC(=O)c1cc([N+](=O)[O-])c(C)c([N+](=O)[O-])c1 | inactive: -15.4% |  |
| CC1(C)CCCN(C(=O)c2coc(=O)c(Br)c2)C1 |  | inconclusive: 28.2 µM [inhibitor, partial curve] |
| CC(C)(C)n1nnnc1C(c1ccc(C(F)(F)F)cc1)N(Cc1ccc(F)cc1)Cc1ccco1 (stereo not given) | inactive: 3.5% |  |
| CCn1cc(C(=O)Nc2ccccc2C(=O)OC)c(=O)c2ccc(C)nc21 |  | inconclusive: 39.8 µM [inhibitor, single point] |
| CCOC(=O)c1oc2nc(C)c3c(c2c1N)CC(C)(C)OC3 |  | inconclusive: 31.6 µM [inhibitor, partial curve] |
| COc1ccccc1Nc1nnc(SCC2CCCCO2)s1 (stereo not given) |  | active: 31.6 µM |
| Cc1ccc(O)c(C(=O)c2cnc3onc(-c4ccc(F)cc4)c3c2)c1 |  | active: 14.1 µM |
| Cn1cc(C(=O)N/N=C/C(Br)=C\c2ccccc2)ccc1=O |  | inconclusive: 44.7 µM [inhibitor, single point] |
| Oc1ccccc1C(=S)N1CCCCCC1 |  | active: 25.1 µM |
| COc1ccc(N(C)S(=O)(=O)c2cccc(C(=O)NCC3CCCO3)c2)cc1 (stereo not given) |  | inconclusive: 37.7 µM [inhibitor, single point] |
| COc1ccc(NC2CC(=O)N(c3cc([N+](=O)[O-])ccc3C)C2=O)cc1 (stereo not given) |  | inconclusive: 37.7 µM [inhibitor, single point] |
| COc1ccc(C(=O)NCC(C)(C)SCc2c(C)cc(C)cc2C)cc1 | inactive: 4.98% |  |
| CC(=O)Nc1ccc(S(=O)(=O)N2CCN(C(=O)c3cccnc3)CC2)cc1 | inactive: -3.47% |  |
| CN(C)/C=N/c1ncc(C(=O)c2ccc(-c3ccccc3)cc2)s1 |  | inconclusive: 22.4 µM [inhibitor, single point] |
| CCOC(=O)CNC(=O)CSc1nnnn1-c1cc(C)ccc1C |  | active: 7.08 µM |
| Cc1ccc(C(=O)OCn2nnc3ccccc3c2=O)cc1[N+](=O)[O-] |  | inconclusive: 17.8 µM [inhibitor, single point] |
| COc1ccc(C(=O)NNC(=O)CSc2nnnn2C)cc1 |  | inconclusive: 22.4 µM [inhibitor, single point] |

| Compound | activity, negative = inhibition | Potency |
| --- | --- | --- |
| NNC(=O)c1nn(-c2ccc(Cl)cc2)ccc1=O |  | inconclusive: 7.94 µM [inhibitor, partial curve] |
| Cc1ccc(-c2c3c(=O)n(C)c(=O)n(C)c3cn2-c2ccccc2O)cc1 |  | inconclusive: 17.8 µM [inhibitor, partial curve] |
| Cc1cc2ccccc2n2c(SCC(=O)Nc3ccc(S(=O)(=O)N4CCC(C)CC4)cc3)nnc12 |  | inconclusive: 39.8 µM [inhibitor, single point] |
| Cc1cc(C)n(-c2ccc(C(=O)OCC(=O)Nc3ccc(Cl)c(S(=O)(=O)N(C)C)c3)cc2)n1 |  | inconclusive: 39.8 µM [inhibitor, single point] |
| CCN(CC)C(=O)Sc1cccc2cccnc12 |  | inconclusive: 23.8 µM [inhibitor, single point] |
| O=C1CCCC2=C1C(c1ccccn1)Nc1ccc(C(=O)c3ccccc3)cc1N2 (stereo not given) | inactive: -10.9% |  |
| C=CCn1c(=N)c(C(=O)NCCCOC)cc2c(=O)n3cccc(C)c3nc21 |  | inconclusive: 31.6 µM [inhibitor, partial curve] |
| N#Cc1cccc(NC(=O)CSc2ccc3c4c(cccc24)C(=O)c2ccccc2-3)c1 |  | active: 17.8 µM |
| O=C(CC1C(=O)NCCN1Cc1ccc(F)c(F)c1)NCCn1cccn1 (stereo not given) |  | inconclusive: 39.8 µM [inhibitor, single point] |
| COc1ccc(-c2cn3c4c(sc3n2)CCCC4)cc1 |  | inconclusive: 39.8 µM [inhibitor, single point] |
| COc1cc(/C=N/Nc2snc(SC)c2C#N)cc(OC)c1OC |  | inconclusive: 39.8 µM [inhibitor, partial curve] |
| COc1cccc(-n2ccnc2SCC(=O)Nc2ccccc2F)c1 |  | inconclusive: 39.8 µM [inhibitor, single point] |
| COc1ccc(C(=O)/C(C#N)=N/Nc2ccccc2[N+](=O)[O-])cc1 | inactive: -1.85% |  |
| O=C(CS(=O)(=O)c1ccccc1)Nc1ccc(Br)cn1 |  | inconclusive: 39.8 µM [inhibitor, single point] |
| COCCNC(=S)N1CCC(NC(=O)c2ccco2)CC1 |  | inconclusive: 44.7 µM [inhibitor, single point] |
| C=CCn1c(CCC(=O)O)ccc1-c1ccccc1 |  | inconclusive: 28.2 µM [inhibitor, partial curve] |
| CCOC(=O)c1c(-c2ccccc2)csc1NC(=O)/C(C#N)=C/c1ccc(O)c(OC)c1 |  | inconclusive: 10 µM [inhibitor, partial curve] |
| CCc1nc(SCC(=O)Nc2nnc(CC(C)C)s2)n[nH]1 |  | inconclusive: 39.8 µM [inhibitor, single point] |
| CCCCOc1ccc(N2C(=O)CC(NCCc3ccc(S(N)(=O)=O)cc3)C2=O)cc1 (stereo not given) |  | inconclusive: 28.2 µM [inhibitor, partial curve] |
| C=CCn1c(=O)c2c(C)c(C)sc2n2c(Nc3ccccc3)nnc12 | inactive: 5.49% |  |
| COC(=O)C1SCC2C(=O)N(Cc3ccc(Cl)c(Cl)c3)CC(=O)N21 (stereo not given) |  | inconclusive: 28.2 µM [inhibitor, single point] |
| CCN(CC)S(=O)(=O)c1ccc(C(=O)Nc2ccc3c(c2)OCCO3)cc1 |  | active: 12.6 µM |
| Cc1n[nH]c(C)c1C(=O)CC1(O)C(=O)N(Cc2ccccc2)c2ccc(Br)cc21 (stereo not given) |  | active: 10 µM |
| COc1ccc(C)cc1N(C(=O)c1ccccc1F)c1nc2ccccc2s1 | inactive: -3.9% |  |

| Compound | activity, negative = inhibition | Potency |
| --- | --- | --- |
| CC1CCCN(S(=O)(=O)c2ccc(Br)s2)C1 (stereo not given) |  | inconclusive: 20 µM [inhibitor, partial curve] |
| O=C(NCc1ccco1)c1cc(S(=O)(=O)N2CCOCC2)ccc1Cl |  | inconclusive: 44.7 µM [inhibitor, single point] |
| c1csc(CNc2ccnc(-c3ccc4c(c3)OCO4)n2)c1 |  | inconclusive: 31.6 µM [inhibitor, partial curve] |
| CC(C)(C)c1ccc(-c2nc(C#N)c(NCc3cccnc3)o2)cc1 |  | inconclusive: 31.6 µM [inhibitor, single point] |
| COc1cccc(N(CC(=O)N2CCN(C)CC2)S(=O)(=O)c2ccccc2)c1 |  | inconclusive: 28.2 µM [inhibitor, single point] |
| CCn1c(SCC(=O)Nc2nc3ccc(C)cc3s2)nc2c(c1=O)SC(C)C2 (stereo not given) |  | inconclusive: 25.1 µM [inhibitor, partial curve] |
| CCOCCOC(=O)C1=C(C)Nc2ccc(C)cc2S1 |  | inconclusive: 20 µM [inhibitor, single point] |
| NC(=O)c1ccc(N2CCN(S(=O)(=O)c3ccccc3)CC2)c([N+](=O)[O-])c1 |  | inconclusive: 39.8 µM [inhibitor, partial curve, poor fit] |
| N#Cc1c(NC(=O)c2cnccn2)sc2c1CCCC2 |  | active: 14.1 µM |
| CCCc1nc([N+](=O)[O-])c(S(=O)(=O)c2ccccc2)n1CC(C)C |  | inconclusive: 39.8 µM [inhibitor, single point] |
| CCc1nnc(NC(=O)c2cc(S(=O)(=O)N3CCN(c4ccccc4)CC3)ccc2Cl)s1 |  | inconclusive: 28.2 µM [inhibitor, single point] |
| O=C(NC1CCCCCC1)C1CCN(S(=O)(=O)c2cccc3cccnc23)CC1 |  | inconclusive: 25.1 µM [inhibitor, single point] |
| CNS(=O)(=O)c1cc(OC)c(OC)cc1CC(=O)OC | inactive: 3.6% |  |
| COc1ccccc1OCc1nnc(SCC(=O)N2CCCCC2)n1-c1ccccc1 |  | inconclusive: 39.8 µM [inhibitor, single point] |
| Cc1ccc(NC(=O)Cn2c(=S)[nH]c3ccccc32)cc1 |  | active: 10 µM |
| O=C(OCC#CCSc1nc2ccccc2o1)c1cc2ccccc2o1 | inactive: 2.18% |  |
| Cc1ccc(S(=O)(=O)N2CCC(=O)N(CCOCc3ccc(Cl)cc3)CC2)cc1 |  | inconclusive: 25.1 µM [inhibitor, partial curve, poor fit] |
| COc1ccc(C(=O)NCc2nnc(SCC(=O)NCc3ccc(F)cc3)o2)cc1 |  | inconclusive: 39.8 µM [inhibitor, single point] |
| O=C(C1CCCN(Cc2ccc3c(c2)OCO3)C1)N1CCCC1 (stereo not given) |  | inconclusive: 20 µM [inhibitor, partial curve] |
| COC(=O)Cn1c(CN2CCOCC2)nc2c1c(=O)[nH]c(=O)n2C | inactive: -2.75% |  |
| COCCn1nnnc1C(c1ccccc1OC)N1CCN(c2ccccc2F)CC1 (stereo not given) | inactive: -14.8% |  |
| O=c1[nH]c(SCc2ccccc2[N+](=O)[O-])nc2nc[nH]c12 |  | inconclusive: 25.1 µM [inhibitor, single point] and inconclusive: 3.16 µM [inhibitor, partial curve] |
